# Out of some 52,000 compounds screened, about 4,300 (8.3%) were called active. No stated cut-off is given here; in the data, active means survival mostly below about 52% (no sharp cut-off); inactive means mostly above about 56%. This is one part of the list.
# System: DeltatarO mutant
# Assay: growth inhibition of S. aureus wild type versus tarO mutant, primary screen, teichoic acid synthesis inhibitors, RN4220, OD600 (AID 463173)
# Settings: OD600, 18 h, stronger effect = lower value, screened at 18.75 µg/mL (by protocol)
row,SMILES,survival
1,O=C(NCCc1ccccc1)C1CCN(c2ncnc3c2nc2n3CCCCC2)CC1,active: -2%
2,COc1ccc(NC(=O)CSC2=Nc3ccccc3C3=NC(CCC(=O)NCc4cccs4)C(=O)N23)cc1 (configuration not stated),inactive: 93%
3,Cc1ccc(C)c(Cn2c3ccccc3c3cnn(CC(=O)NC4CCC(C)CC4)c(=O)c32)c1 (configuration not stated),inactive: 64%
4,Cc1nn(-c2ccc(F)cc2)c(-n2cccc2)c1C(=O)N1CCN(c2ccccc2)CC1,inactive: 77%
5,Cc1cc2nn(-c3ccccc3)nc2cc1NC(=O)COc1ccc(Cl)cc1,inactive: 64%
6,C=CCn1c(CSc2nc3ccccc3s2)nnc1SCC(=O)NCCN1CCOCC1,inactive: 99%
7,CCOc1ccc(Cn2nnc(C(=O)Nc3cccc(SC)c3)c2N)cc1,active: 30%
8,CCCN(CCC)C(=O)Cn1c(=O)n(-c2ccc(C)c(C)c2)c(=O)c2c3c(sc21)CCCCC3,inactive: 69%
9,COC(=O)C1CSCN1 (configuration not stated),inactive: 78%
10,Cc1cc(NC(=O)c2cc(-c3cccc(Cl)c3)on2)nn1Cc1ccc(Cl)cc1,active: 43%
11,CC1CCC(NC(=O)CCc2cn(Cc3ccccc3Cl)c3ccccc23)CC1 (configuration not stated),active: 51%
12,CC1(C)CC(=O)C/C(=N\NC(=O)CCc2ccccc2)C1,inactive: 93%
13,Cc1nnc(N2CCC(C(=O)Nc3ccc(F)cc3)CC2)c2nn(-c3ccc(Cl)cc3)c(C)c12,inactive: 72%
14,Cc1ccc(C(=O)Nc2c(-c3ccccc3)nc3ccccn23)cc1,active: 40%
15,Cc1ccc(C2c3[nH]c4ccccc4c3CCN2C(=O)c2ccccc2Br)cc1 (configuration not stated),inactive: 77%
16,CCCCOC(=O)/C(C#N)=C/c1ccc(-c2cccc(C(F)(F)F)c2)o1,active: 46%
17,CCOc1ccc(-c2nonc2NC(=O)c2ccco2)cc1,inactive: 79%
18,CCOc1ccc(NC(=O)CSc2nc3c(oc4ccccc43)c(=O)n2-c2cc(C)cc(C)c2)cc1,inactive: 73%
19,COc1cc(/C=C/c2nc(C#N)c(N3CCCCC3)o2)cc(OC)c1OC,inactive: 89%

row,SMILES,survival
1,Cc1ccccc1CNC(=O)C1CCN(S(=O)(=O)Cc2ccccc2)CC1,inactive: 75%
2,CCc1ccc(NC(=O)C(=O)NCC(c2cccnc2)N2CCN(Cc3ccccc3)CC2)cc1 (configuration not stated),inactive: 75%
3,O=C(CCCn1c(=O)c2cccn2c2ccc(F)cc21)NCc1ccc(Cl)cc1,active: 38%
4,COC(=O)CC1Oc2ccccc2-n2cc(-c3ccccc3)nc21 (configuration not stated),inactive: 66%
5,CC1CCN(C(=O)CSc2c(C(C)C)cnc3c2c(=O)n(C)c(=O)n3C)CC1,inactive: 98%
6,Cc1ccccc1CSc1nc2cc(C(=O)NC3CCCC3)ccc2c(=O)n1Cc1ccccc1,inactive: 107%
7,Cc1ccc(O)c(NC(=O)c2ccc(Br)c(S(=O)(=O)N3CCCCC3)c2)c1,inactive: 92%
8,CCN(Cc1ccccc1)C(=O)Cn1cc(S(=O)(=O)Cc2cccc(Cl)c2)c2ccccc21,inactive: 101%
9,Cc1cc2c(cc1C)NC(CC(=O)Nc1ccccc1)C(=O)N2 (configuration not stated),inactive: 56%
10,CC1(C)CC(=O)C2=C(C1)OC(N)=C(C#N)C2C#Cc1ccccc1 (configuration not stated),inactive: 104%
11,CCOC(=O)Cn1c(=O)n(CC2CCCO2)c2nc(-c3cccc(C)c3)nc(C(N)=O)c21 (configuration not stated),inactive: 79%
12,CCOc1ccccc1NC(=O)CCc1c(C)nn(-c2ccc(N3CCOCC3)nn2)c1C,inactive: 80%
13,Cc1ccc(NC(=O)CSc2ncn[nH]2)cc1C,inactive: 77%
14,Cc1c(Cl)cccc1NC(=O)c1noc2c1CCCC2,inactive: 66%
15,CCn1c(C)c(C)c2cc(C(=O)NCCCN3CCCCC3)ccc21,inactive: 90%
16,Cc1ccc(C)c(N2CCN(Cc3nnc(-c4ccc5c(c4)OCO5)o3)CC2)c1,inactive: 70%
17,Cn1c(=O)oc2cc(S(=O)(=O)NC(Cc3ccccc3)C(=O)NCc3ccc(F)cc3)ccc21 (configuration not stated),inactive: 92%
18,COc1ccccc1OC(C)C(=O)Nc1c(C(=O)c2ccc(Cl)cc2)oc2ccccc12 (configuration not stated),inactive: 81%
19,CCC(=O)N1c2ccccc2CC1C(=O)NCCN1CCN(c2cccc(C(F)(F)F)c2)CC1 (configuration not stated),inactive: 105%

row,SMILES,survival
1,CCC(=O)Nc1ccc2nc(SCCOc3ccccc3)sc2c1,inactive: 87%
2,CCCCOc1ccc(CNC(=O)c2ccc(NC(=O)N3CCCCc4ccccc43)cc2)cc1,inactive: 70%
3,CC(=O)Nc1nonc1-c1nnc(SCC(=O)Nc2ccccc2)n1-c1ccccc1,active: 39%
4,O=C(CNC(=O)c1ccccc1F)OCc1cc(=O)n2ccsc2n1,inactive: 73%
5,COc1ccc(OC)c(NC(=O)Cn2ccc3ccccc3c2=O)c1,inactive: 76%
6,COc1ccccc1C(=O)Nc1nnc(SCc2cc(=O)c3cc(Cl)ccc3[nH]2)s1,inactive: 62%
7,COc1ccc(NC(=O)c2c(-c3ccc(C)cc3)nnc3ccccc23)cc1Cl,inactive: 67%
8,CCN(CC)C(=O)Cn1c(=O)n(-c2ccc(OC)cc2OC)c(=O)c2c(C)c(C(=O)N(CC)CC)sc21,inactive: 89%
9,CCc1c(C)nc2cc(-c3cc(OC)cc(OC)c3)nn2c1NCCCN(CC)CC,inactive: 113%
10,O=C(NCc1ccco1)C(Sc1ccccc1)c1ccccc1 (configuration not stated),inactive: 101%
11,Cc1ccc(C)c(N2CCN(C(=O)C3CCCN(S(=O)(=O)c4cccc5nsnc45)C3)CC2)c1 (configuration not stated),inactive: 77%
12,Cc1ccc(N(CC(=O)NCc2ccc(F)cc2)S(=O)(=O)c2c(C)nn(C)c2C)cc1,inactive: 68%
13,COc1cccc(CNC(=O)c2ccc3c(c2)nnn3C2CCCC2)c1,inactive: 130%
14,CCCCSCCCNC(=O)c1cn(C)c2ccc(S(=O)(=O)N3CCCCC3)cc2c1=O,inactive: 79%
15,COc1ccc(-n2nc(C(=O)Nc3ccc(C)cn3)c3c4ccccc4n(C)c3c2=O)cc1,inactive: 76%
16,Cc1ccc(-n2cc(-c3ccccc3)nc2S(=O)(=O)CC(=O)Nc2ccc(F)cc2)cc1,inactive: 103%
17,O=C(NCC1CCN(S(=O)(=O)c2ccc(Cl)cc2)CC1)C1CCCO1 (configuration not stated),inactive: 80%
18,CCN(CC)CCCNC(=O)c1cn(CC)c2ccc(S(=O)(=O)N3CCc4ccccc4C3)cc2c1=O,inactive: 121%
19,O=S(=O)(c1ccccc1)c1nc(-c2ccc(Cl)cc2Cl)oc1N1CCCCC1,inactive: 90%
